# Source: PubChem BioAssay AID1347417 (National Center for Advancing Translational Sciences (NCATS), 2020)
# Screen size: about 120,000 compounds; about 5,300 (4.4%) were called active. This list was built around the results that the source calls inconclusive (neither active nor inactive); the mix of calls is not that of the screen. Calls come from the whole dose curve; as a rule, active = well fitted inhibition curve with a large enough effect; inconclusive = small, poorly fitted or top-dose-only effect; inactive = no such curve, though single readings can be large or run the other way. Where the call is inconclusive, the potency comes from a doubtful curve fit.
# Assay: qHTS Primary assay for Inhibitors of Plasmodium falciparum Dd2 growth in vitro; note: nearly all actives have a fitted effect of over 65% in size;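 for activity, negative = inhibition: plate controls were DMSO vehicle for no effect and reference drug for full effect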
# Details: P. falciparum Dd2 growth, SYBR Green, 72 h; activity, negative = inhibition: at 28.9 µM (top of the series) unless noted; series mostly up to 28.9 µM
# Outline: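 Infected erythrocytes (Dd2, 0.3% parasitemia, 2.5% hematocrit final) are added to compound in RPMI-1640/Albumax II medium, grown 72 h at 37C in low oxygen, then lysed with saponin/Triton-X containing SYBR Green and read by fluorescence.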
# Potency is the fitted concentration of half-maximal effect; tags give direction and shape of the fitted curve.
SMILES,Potency,"activity, negative = inhibition"
COc1cc2c(cc1CNC(=O)C1CC(=O)N(Cc3cccnc3)C1)CCC2 (stereo unspecified),"inconclusive: 14.1 µM [inhibitor, partial curve, poor fit]",–
CCCOc1nccnc1NC1CCN(S(=O)(=O)C2CC2)CC1,–,inactive: 32.8% [at 5.79 µM]
COc1ccc(-c2cc(N3CCCC(NC(=O)c4cc(OC)c(OC)c(OC)c4)C3)n[nH]2)cc1 (stereo unspecified),inactive,–
CCCS(=O)(=O)N1CCC(C2CCNC2)CC1 (stereo unspecified),inactive,–
COc1ccc(-c2ccnc3nc(C4CC4)nn23)c(F)c1,inactive,–
O=C(c1ccccc1F)N1CCC(N2Cc3ccccc3C2=O)CC1,inactive,–
CC(C)CN1Cc2ccccc2-n2ccnc2C12CCN(C(=O)c1ccoc1)CC2,"inconclusive: 2.82 µM [inhibitor, partial curve, poor fit]",–
COc1ccc(CCNC(=O)c2ccc(Cn3c(=O)[nH]c4cc(OC)c(OC)cc4c3=O)cc2)cc1OC,inactive,–
COc1cccc(OC)c1C(=O)N1C(C(=O)NCc2cccc(F)c2)COC12CCCCC2 (stereo unspecified),"inconclusive: 8.91 µM [inhibitor, partial curve, poor fit]",–
O=C(CN1CCCC1)N1CC[C@@H](c2ccc3ccccc3c2)[C@H](O)C1,"inconclusive: 7.94 µM [inhibitor, partial curve, poor fit]",–
CC(C)(C)c1ccc(C(=O)Nc2ccc(C(O)[C@H]3COCC(=O)N3Cc3ccccc3)cc2)cc1 (stereo partly specified),"inconclusive: 0.316 µM [inhibitor, full curve, poor fit]",–
CCC(=O)Nc1sc2c(c1C(=O)Nc1ccc(Br)cc1)CCCCC2,"inconclusive: 10 µM [inhibitor, single point]",–
CN1c2cc(C(=O)N3CCN(c4ccccc4F)CC3)ccc2C(=O)N2CCCCC21 (stereo unspecified),"inconclusive: 11.2 µM [inhibitor, partial curve, poor fit]",–
O=C(c1ccco1)N1CCC(O)(c2ccccc2)[C@H](N2CCCC2)C1 (stereo partly specified),"inconclusive: 1.41 µM [inhibitor, partial curve, poor fit]",–
O=C(C1CN(c2ccccc2)C(=O)N1)N1CCC(Cc2ccccc2)CC1 (stereo unspecified),inactive,–
O=C(c1ccco1)N1CCN(c2ncncc2-c2nc(-c3ccccc3)no2)CC1,active: 3.98 µM,–
Cc1cccc(N2CCN(C(=O)c3cc4ccc5cccnc5c4[nH]3)CC2C)c1 (stereo unspecified),"inconclusive: 7.94 µM [inhibitor, partial curve, poor fit]",–
O=c1c2ccccc2n(Cc2cccc(Cl)c2)c(=O)n1Cc1ccccc1,inactive,–
Cc1ccc(C2=NC3(CCN(C(=O)Cc4cccs4)CC3)ON2)cc1,"inconclusive: 20 µM [inhibitor, single point]",–
c1ccc(-c2noc(-c3ccn4c(CN5CCN(c6ccccn6)CC5)nnc4c3)n2)cc1,"inconclusive: 0.251 µM [inhibitor, full curve]",–
Cc1ccc(C(=O)N2CCC(C)CC2)cc1NC(=O)c1nsc2ccccc12,"inconclusive: 17.8 µM [inhibitor, single point]",–
OC1(CN2CCC(c3nc(-c4ccccc4)no3)CC2)CNCCOC1 (stereo unspecified),"inconclusive: 4.47 µM [inhibitor, partial curve, poor fit]",–

SMILES,Potency,"activity, negative = inhibition"
COc1ccc(NC(=O)N2C[C@@H]3C[C@H](C2)c2ccc(NC(=O)Nc4ccc(C(C)=O)cc4)c(=O)n2C3)cc1,inactive,–
CC(=O)c1cc(-c2ccc(F)cc2)n(CCC(=O)Nc2nc3ccc(C)cc3s2)c1C,"inconclusive: 6.31 µM [inhibitor, partial curve]",–
CC(C)c1ccc(NC(=O)OC[C@H]2C[C@@H]3CCN2C[C@@H]3c2cc(C3CCCC3)nc(-c3ccncc3)n2)cc1,"inconclusive: 1 µM [inhibitor, partial curve, poor fit]",–
CCOC(=O)c1cnc2ccc(OCC)cc2c1Nc1ccc(OCc2ccccc2Cl)cc1,"inconclusive: 10 µM [inhibitor, single point]",–
CC(C)CNC1(Cc2cc(CN(C)C)on2)COC1,inactive,–
COc1ccccc1N1CCN(C(=O)C2CCCN(S(C)(=O)=O)CCC(=O)NCC2)CC1 (stereo unspecified),"inconclusive: 7.94 µM [inhibitor, partial curve]",–
COCc1nc(C2CCCN(C(=O)c3ccncc3)C2)no1 (stereo unspecified),inactive,–
CN1CCc2c([nH]c3ccccc23)C12CCN(C(=O)C1CC1)CC2,"inconclusive: 8.91 µM [inhibitor, single point]",–
CCc1nccc(-c2c(-c3ccccc3)ncn2CC(O)c2ccccc2)n1 (stereo unspecified),"inconclusive: 10 µM [inhibitor, single point]",–
CCN(c1ccccc1)S(=O)(=O)c1ccc(NC(=O)c2nc(SC(C)C)ncc2Cl)cc1,"inconclusive: 11.2 µM [inhibitor, single point]",–
Cn1cc(CN2CCOc3cc([S+](=O)([O-])Nc4cccnc4)ccc3C2)cn1,inactive,–
Cc1ccc(O)c(-c2n[nH]c3c2C(c2ccc(F)cc2)N(Cc2ccco2)C3=O)c1 (stereo unspecified),"inconclusive: 17.8 µM [inhibitor, single point]",–
C[C@@H]1CN(C[C@@H]2CN(C(=O)C3CCC3)C[C@@H]2CO)C[C@H](C)O1,inactive,–
CN(Cc1ccc(F)cc1)C(=O)c1ccccc1Cl,inactive,–
COc1ccc(-c2cc(C(F)(F)F)nc(NCc3ccc(F)cc3)n2)cc1,"inconclusive: 7.08 µM [inhibitor, single point]",–
CCOc1ccc(NC(=O)CSc2oc(-c3ccc(C)cc3)nc2S(=O)(=O)c2ccc(C)cc2)cc1,"inconclusive: 15.8 µM [inhibitor, single point]",–
Fc1ccc(-c2cnc3n2C[C@H](CNCc2ccc4c(c2)OCO4)OC3)cc1,"inconclusive: 10 µM [inhibitor, partial curve, poor fit]",–
COc1ccc(C(=O)N2CCCC(n3cc(-c4nc(C(C)C)no4)nn3)C2)cn1 (stereo unspecified),"inconclusive: 0.501 µM [inhibitor, full curve, poor fit]",–
Cc1ccoc1C(=O)N1C[C@@H](COCC2CC2)[C@H](c2ccccn2)C1,"inconclusive: 10 µM [inhibitor, single point]",–
O=C(c1nc(-c2ccc(Cl)cc2)c2ccccn12)N1CCN(c2ncccn2)CC1,"inconclusive: 11.2 µM [inhibitor, single point]",–
CCOc1cccc(CN2CCCC(COc3ccccc3C(=O)NC(C)C)C2)c1 (stereo unspecified),inactive,–
COc1ccc(CCNc2ncnc3onc(C)c23)c(OC)c1,"inconclusive: 20 µM [inhibitor, partial curve, poor fit]",–

SMILES,Potency,"activity, negative = inhibition"
CN(C)Cc1ccc(C2CCCN2Cc2cccc3nonc23)cc1 (stereo unspecified),"inconclusive: 12.6 µM [inhibitor, partial curve]",–
Cc1ccc(-c2noc([C@@H]3CCCN3C(=O)c3ccc(C(C)(C)C)cc3)n2)cc1,inactive,–
CCOC(=O)C1=C(C)N=C2SC=C(CC(=O)NCc3ccco3)N2C1c1cccc(OC)c1OC (stereo unspecified),inactive,–
Cc1ccc(-c2csc3ncnc(Nc4ccc(C(=O)O)cc4)c23)cc1,"inconclusive: 20 µM [inhibitor, single point]",–
O=C(Cc1cccc(F)c1)N1CCN(C2CCN(Cc3cccnc3)C2=O)CC1 (stereo unspecified),"inconclusive: 11.2 µM [inhibitor, single point]",–
COc1ccccc1OCCNC(=O)CCC1CCN(C(=O)c2ccccc2)CC1,inactive,–
Cc1nnnn1CCCN1CCC2(CC1)CNC(C(=O)O)C2 (stereo unspecified),inactive,–
Cc1ccc(C2Cn3nnc(C(=O)N4CCN(C(=O)c5cccc(F)c5)CC4)c3CO2)cc1 (stereo unspecified),inactive,–
CN1CCCCCCN(Cc2ccccc2)[C@H]2CCC[C@H]2C1=O,"inconclusive: 2 µM [inhibitor, full curve, poor fit]",–
Cc1ccc(C)c([S+](=O)([O-])c2nnn3c2nc(NC2CCCC2)c2ccccc23)c1,"inconclusive: 2.51 µM [inhibitor, full curve]",–
CC(C)CN1CCC(O)(c2csc(CN3CCN(c4ccccn4)CC3)n2)CC1,"inconclusive: 25.1 µM [inhibitor, single point]",–
COCCc1noc(CNC(=O)C2COc3ccccc3C2)n1 (stereo unspecified),inactive,–
O=C([C@@H]1C[C@H](Oc2ccccc2)CN1C(=O)C1CCCC1)N1CCCC1,"inconclusive: 17.8 µM [inhibitor, single point]",–
COc1cc(OC)cc(C(=O)N2CCCC(c3noc(COc4ccccc4F)n3)C2)c1 (stereo unspecified),"inconclusive: 10 µM [inhibitor, single point]",–
CCc1ccc(S(=O)(=O)c2nnn3c2nc(NCc2ccccc2)c2cc(Cl)ccc23)cc1,"inconclusive: 3.55 µM [inhibitor, partial curve, poor fit]",–
Cc1cccc(CN2CCCC(c3nc(C(C)C)no3)CCNC(=O)CC2)c1 (stereo unspecified),"inconclusive: 12.6 µM [inhibitor, partial curve, poor fit]",–
O=C(Nc1ccc(Cl)cc1)c1cc(S(=O)(=O)NC2CCCCCC2)ccc1F,"inconclusive: 10 µM [inhibitor, single point]",–
COc1ccc(OC)c(/C=C(\C#N)c2nc(-c3ccc(F)cc3)cs2)c1,"inconclusive: 10 µM [inhibitor, single point]",–
COC(=O)c1ccc2c(c1)N(Cc1ccccc1)C(=O)c1ccccc1S2(=O)=O,inactive,–
COc1ccc(Cl)cc1NC(=O)CN1Cc2ccccc2C1=O,inactive,–
CCCNC(=O)c1cccc2c1CCN2C(=O)Nc1cccc(C)c1,"inconclusive: 17.8 µM [inhibitor, single point]",–
COc1ccc2c(c1)CCc1c(C(=O)Nc3ccc(OC)cc3OC)noc1-2,–,inconclusive: -58.1% [inhibitor] [at 0.594 µM]
